The results in this text go back to the supplement of paper PMC10037445.

“And” between values parts separate entries of the source, which are not always exact repeats. Identical values can stand only once. Over roughly 2,900 compounds, “NF-kB SEAP reporter activity, fold change vs agonist alone” has its median near 0.99; the highest 2% begin near 2.6. Some of the results follow.

Experiment [1] relates to RAW-Dual. The experiment can be described thus: NF-kB SEAP reporter activity, fold change vs agonist alone; cytotoxicity flag (confluency mask): not cytotoxic; higher = enhanced NF-kB activity. In a few lines:
(§1)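 RAW-Dual macrophages were seeded in DMEM at 50,000 cells/well in 384-well plates, given 50 nL of library stock by pin tool, and given a PRR agonist 1 h later. Plates were held at 37 °C, 5% CO2 for 20 hours, after which supernatant was read for IRF by QuantiLuc luminescence and for NF-κB by QuantiBlue absorbance at 620 nm. Reporter activity is expressed as fold change over wells that received agonist alone. A well was called cytotoxic when IncuCyte confluency fell below 70% of agonist controls in both mask sets.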

The subject of experiment [2] is RAW-Dual. The experiment can be described thus: NF-kB SEAP reporter activity, fold change vs agonist alone; higher = enhanced NF-kB activity. The method, boiled down:
as §1

The test system of experiment [3] is RAW-Dual. The experiment can be described thus: NF-kB SEAP reporter activity, fold change vs agonist alone; cytotoxicity flag (confluency mask): cytotoxic (confluency <70% of control); higher = enhanced NF-kB activity. In a few lines:
as §1

Setting [4] is: agonist: ODN 1826 (TLR9) 0.5 ug/mL.
Where [5] appears, read: agonist: Pam2CSK4 (TLR2/6) 0.1 ug/mL.
Setting [6] is: agonist: Pam3CSK4 (TLR2/1) 0.1 ug/mL.
[7] abbreviates: library stock concentration (final ~1000-fold dilution): 10 mM, cytotoxicity flag (confluency mask): not cytotoxic, agonist: Imiquimod (TLR7) […].
Where [8] appears, read: library stock concentration (final ~1000-fold dilution): 10 mM, cytotoxicity flag (confluency mask): not cytotoxic, agonist: MPLA (TLR4) […].
[9] abbreviates: library stock concentration (final ~1000-fold dilution): 10 mM water, cytotoxicity flag (confluency mask): not cytotoxic, agonist: Imiquimod (TLR7) […].
The mark [10] stands for this setting: library stock concentration (final ~1000-fold dilution): 10 mM water, cytotoxicity flag (confluency mask): not cytotoxic, agonist: MPLA (TLR4) […].

Consider `Nc1nc(N)c2nc(-c3ccccc3)c(N)nc2n1` (library stock concentration (final ~1000-fold dilution): 10 mM), for which the “NF-kB SEAP reporter activity” value in experiment [1] (agonist: LPS (TLR4) 0.1 ug/mL) is 1.2; in experiment [1] (setting [4]) it was 1.19; in experiment [1] (setting [5]), 1.27; in experiment [1] (setting [6]), 1.23.

Consider `Nc1nc(N)c2nc(-c3ccccc3)c(N)nc2n1`, for which the “NF-kB SEAP reporter activity” value is 1.09 in experiment [2] (setting [7]) and 1.08 in experiment [2] (setting [8]).

Turning to `CCO.N#CC(=C(\N)Sc1ccccc1N)/C(C#N)=C(/N)Sc1ccccc1N`, the “NF-kB SEAP reporter activity” value amounted to 0.206 in experiment [2] (setting [7]) and 0.236 in experiment [2] (setting [8]).

For `CCO.N#CC(=C(\N)Sc1ccccc1N)/C(C#N)=C(/N)Sc1ccccc1N` (library stock concentration (final ~1000-fold dilution): 10 mM), the “NF-kB SEAP reporter activity” value in experiment [1] (agonist: LPS (TLR4) 0.1 ug/mL) amounted to 0.241; in experiment [1] (setting [4]), 0.368; in experiment [1] (setting [5]), 0.0792; in experiment [1] (setting [6]), 0.146.

Turning to `COc1cc(F)c(C(C)C)cc1-c1ccc(C(F)(F)F)cc1CN1C(=O)OC(c2cc(C(F)(F)F)cc(C(F)(F)F)c2)C1C` (configuration not stated) (library stock concentration (final ~1000-fold dilution): 10 mM), the “NF-kB SEAP reporter activity” value came out at 1.06 in experiment [1] (agonist: LPS (TLR4) 0.1 ug/mL), 1.03 in experiment [1] (setting [4]), 0.902 in experiment [1] (setting [5]) and 0.986 in experiment [1] (setting [6]).

Consider `COc1cc(F)c(C(C)C)cc1-c1ccc(C(F)(F)F)cc1CN1C(=O)OC(c2cc(C(F)(F)F)cc(C(F)(F)F)c2)C1C` (configuration not stated), for which the “NF-kB SEAP reporter activity” value in experiment [2] (setting [7]) stood at 0.991; in experiment [2] (setting [8]), 1.06.

As for `N=C(N)NCCCCC(N)C(=O)O` (configuration not stated) (library stock concentration (final ~1000-fold dilution): 10 mM water), the “NF-kB SEAP reporter activity” value came to 1.12 in experiment [1] (agonist: LPS (TLR4) 0.1 ug/mL), 1.12 in experiment [1] (setting [4]), 1.13 in experiment [1] (setting [5]) and 1.06 in experiment [1] (setting [6]).

On to `N=C(N)NCCCCC(N)C(=O)O` (configuration not stated), for which the “NF-kB SEAP reporter activity” value was found to be 0.998 in experiment [2] (setting [9]) and 1.03 in experiment [2] (setting [10]).

Take `CC(C)C(=O)c1c(C(C)C)nn2ccccc12` (library stock concentration (final ~1000-fold dilution): 10 mM): the “NF-kB SEAP reporter activity” value in experiment [1] (agonist: LPS (TLR4) 0.1 ug/mL) was 1.73; in experiment [1] (setting [4]) it was 1.58; in experiment [1] (setting [5]), 1.47; in experiment [1] (setting [6]), 1.57.

With `CC(C)C(=O)c1c(C(C)C)nn2ccccc12`, the “NF-kB SEAP reporter activity” value in experiment [2] (setting [8]) was found to be 1.54.

As for `O=C(c1ccccc1)c1ccc2nc(NC(=O)c3csc(C4CCN(c5ncnc6ccsc56)CC4)n3)[nH]c2c1` (library stock concentration (final ~1000-fold dilution): 10 mM), the “NF-kB SEAP reporter activity” value in experiment [1] (agonist: LPS (TLR4) 0.1 ug/mL) was 2.75 and 2.17; in experiment [1] (setting [4]), 1.57 and 1.25; in experiment [1] (setting [5]) it was 0.384 and 0.435; in experiment [1] (setting [6]), 0.694 and 0.75.

Take `Cn1c(N2CCCCS2(=O)=O)nc(C(=O)NCc2ccc(F)cc2)c(O)c1=O` (library stock concentration (final ~1000-fold dilution): 10 mM): the “NF-kB SEAP reporter activity” value in experiment [1] (agonist: LPS (TLR4) 0.1 ug/mL) was found to be 1.11; in experiment [1] (setting [4]), 0.823; in experiment [1] (setting [5]), 0.981; in experiment [1] (setting [6]) it was 0.808.

`Cn1c(N2CCCCS2(=O)=O)nc(C(=O)NCc2ccc(F)cc2)c(O)c1=O`: the figures for the “NF-kB SEAP reporter activity” value in experiment [2] (setting [7]) and in experiment [2] (setting [8]) were 0.565 and 0.6, respectively.

As for `C=CC1(C)CC(OC(=O)CSCCN(CC)CC)C2(C)C(C)CCC3(CCC(=O)C32)C(C)C1O.O=C(O)/C=C/C(=O)O` (configuration not stated) (library stock concentration (final ~1000-fold dilution): 10 mM), the “NF-kB SEAP reporter activity” value in experiment [1] (agonist: LPS (TLR4) 0.1 ug/mL) is 1.37; in experiment [1] (setting [4]), 0.712; in experiment [1] (setting [5]), 0.821; in experiment [1] (setting [6]), 0.841.

Consider `C=CC1(C)CC(OC(=O)CSCCN(CC)CC)C2(C)C(C)CCC3(CCC(=O)C32)C(C)C1O.O=C(O)/C=C/C(=O)O` (configuration not stated), for which the “NF-kB SEAP reporter activity” value in experiment [2] (setting [8]) was found to be 1.13.

Take `COc1cccc(C(N)=O)c1`: the “NF-kB SEAP reporter activity” value in experiment [2] (setting [8]) is 1.03.

In the case of `COc1cccc(C(N)=O)c1` (library stock concentration (final ~1000-fold dilution): 10 mM), the “NF-kB SEAP reporter activity” value in experiment [1] (agonist: LPS (TLR4) 0.1 ug/mL) worked out at 1.31; in experiment [1] (setting [4]), 0.972; in experiment [1] (setting [5]), 1.23; in experiment [1] (setting [6]), 0.844.

For `CC(C)NCC(O)COc1cccc2[nH]ccc12` (configuration not stated), the results for the “NF-kB SEAP reporter activity” value in experiment [2] (setting [7]) and in experiment [2] (setting [8]) were 1.21 and 1.14, respectively.

On to `CC(C)NCC(O)COc1cccc2[nH]ccc12` (configuration not stated) (library stock concentration (final ~1000-fold dilution): 10 mM), for which the “NF-kB SEAP reporter activity” value worked out at 1.45 in experiment [1] (agonist: LPS (TLR4) 0.1 ug/mL), 1.3 in experiment [1] (setting [4]), 1.33 in experiment [1] (setting [5]) and 1.21 in experiment [1] (setting [6]).

Turning to `Nc1ccn(CC(CO)OCP(=O)(O)O)c(=O)n1` (configuration not stated), the figures for the “NF-kB SEAP reporter activity” value in experiment [2] (setting [9]) and in experiment [2] (setting [10]) were 0.956 and 1.04, respectively.

For `Nc1ccn(CC(CO)OCP(=O)(O)O)c(=O)n1` (configuration not stated) (library stock concentration (final ~1000-fold dilution): 10 mM water), the “NF-kB SEAP reporter activity” value in experiment [1] (agonist: LPS (TLR4) 0.1 ug/mL) is 1.2; in experiment [1] (setting [4]) it was 1.23; in experiment [1] (setting [5]), 1.32; in experiment [1] (setting [6]), 1.29.

Consider `CC1COC2=C1C(=O)C(=O)c1c2ccc2c1CCCC2(C)C` (configuration not stated) (library stock concentration (final ~1000-fold dilution): 10 mM), for which the “NF-kB SEAP reporter activity” value in experiment [1] (agonist: LPS (TLR4) 0.1 ug/mL) worked out at 0.845; in experiment [1] (setting [4]), 0.682; in experiment [1] (setting [5]), 1.06; in experiment [1] (setting [6]), 0.896.

`CC1COC2=C1C(=O)C(=O)c1c2ccc2c1CCCC2(C)C` (configuration not stated): the “NF-kB SEAP reporter activity” value in experiment [2] (setting [7]) stood at 0.935; in experiment [2] (setting [8]), 0.895.

On to `CC/C(=C(\c1ccc(O)cc1)c1ccc(OCCNC)cc1)c1ccccc1.Cl`, for which the “NF-kB SEAP reporter activity” value was found to be 0.387 in experiment [2] (library stock concentration (final ~1000-fold dilution): 10 mM, cytotoxicity flag (confluency mask): cytotoxic (confluency <70% of control), agonist: Imiquimod (TLR7) […]) and 0.632 in experiment [2] (library stock concentration (final ~1000-fold dilution): 10 mM, cytotoxicity flag (confluency mask): cytotoxic (confluency <70% of control), agonist: MPLA (TLR4) […]).

On to `CC/C(=C(\c1ccc(O)cc1)c1ccc(OCCNC)cc1)c1ccccc1.Cl` (library stock concentration (final ~1000-fold dilution): 10 mM), for which the “NF-kB SEAP reporter activity” value in experiment [3] (agonist: LPS (TLR4) 0.1 ug/mL) was 0.354; in experiment [3] (setting [4]), 0.211; in experiment [3] (setting [5]), 0.157; in experiment [3] (setting [6]), 0.135.

Consider `COc1cc2nccc(Oc3ccc(NC(=O)c4cn(C(C)C)c(=O)n(-c5ccc(F)cc5)c4=O)cc3F)c2cc1OC` (library stock concentration (final ~1000-fold dilution): 10 mM), for which the “NF-kB SEAP reporter activity” value was 0.492 in experiment [1] (agonist: LPS (TLR4) 0.1 ug/mL), 0.596 in experiment [1] (setting [4]), 0.324 in experiment [1] (setting [5]) and 0.402 in experiment [1] (setting [6]).
